Experimental data: patent US20260209301A1, “Galanin-2 Receptor Agonists” (LIFEARC, priority 2022, published 2026)

Assays:
human GalR2 = target: T1, human GalR2 (Homo sapiens, UniProt O43603); assay: Calcium assay, CHO GalR2 cells (FLIPR); details: Table 7; mean +/− standard deviation; highest concentration tested 10 μM
T1 sequence (O43603 1-387): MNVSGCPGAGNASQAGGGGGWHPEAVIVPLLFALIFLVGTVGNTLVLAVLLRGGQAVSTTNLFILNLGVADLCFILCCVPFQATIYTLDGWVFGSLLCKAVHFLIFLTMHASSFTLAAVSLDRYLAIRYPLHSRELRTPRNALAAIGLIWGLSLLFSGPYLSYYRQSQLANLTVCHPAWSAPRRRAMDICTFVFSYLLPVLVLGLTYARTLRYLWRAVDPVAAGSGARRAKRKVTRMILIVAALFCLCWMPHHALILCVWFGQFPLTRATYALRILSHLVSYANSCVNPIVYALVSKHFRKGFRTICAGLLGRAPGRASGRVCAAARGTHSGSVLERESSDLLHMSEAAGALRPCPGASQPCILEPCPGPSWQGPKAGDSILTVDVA

human GalR1 = target: T2, human GalR1 (Homo sapiens, UniProt P47211); assay: cAMP HTRF assay, CHO GalR1 cells; assay type: cell-based; details: Table 7; mean +/− standard deviation; highest concentration tested 10 μM
T2 construct: expressed in transfected cells; host or cells: CHO (Flp-In, pcDNA5/FRT)
T2 sequence (P47211 1-349): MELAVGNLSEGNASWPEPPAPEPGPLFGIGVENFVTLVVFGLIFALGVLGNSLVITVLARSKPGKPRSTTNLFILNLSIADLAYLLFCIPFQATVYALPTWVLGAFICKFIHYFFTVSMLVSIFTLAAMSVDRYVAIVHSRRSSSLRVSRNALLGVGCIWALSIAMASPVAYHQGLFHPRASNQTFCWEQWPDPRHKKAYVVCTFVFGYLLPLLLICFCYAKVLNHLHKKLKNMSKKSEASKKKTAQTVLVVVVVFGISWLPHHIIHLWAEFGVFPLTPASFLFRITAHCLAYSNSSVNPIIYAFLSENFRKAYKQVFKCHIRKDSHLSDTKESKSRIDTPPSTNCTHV
Protocol: The CAMP dynamic 2 kit (Cisbio International) was used as a competitive immunoassay to measure Homogenous Time-Resolved Fluorescence (HTRF). […] Addition of detection reagent involved adding 5 μl d2 conjugated CAMP followed by 5 μl anti-CAMP cryptate conjugate. The two reagents were not pre-mixed; these were both prepared in cell lysis buffer and incubated at room temperature in the dark for one hour.

B1: Gal2-13FC GGS4: Gal2-13 FC fusion with […] linker; SEQ ID NO: 35 (protein)
chain: WTLNSAGYLLGPGGSGGSGGSGGSLEPKSSDKTHTCPPCTRUE[human IgG1 Fc not spelt out]
modifications: chains of the parent or of the whole protein
GalR2 activity (calcium assay), linker variants (human GalR2): 6.2 +/− 0.1 | GalR1 activity (cAMP assay), linker variants (human GalR1): 5.3 +/− 0.0
